Source: publication PMC4336329 (PLoS ONE, 2015)
The campaign covered roughly 310,000 compounds. About 2,200 (0.71%) showed an effect of 50% or more. The effect is printed as a negative number. This is one part of the list.

The compounds below were run against human ether-à-go-go-related gene (hERG) potassium channel (human, UniProt Q12809) (assay: primary screen, population patch clamp on CHO cells stably expressing hERG).
Chain of human ether-à-go-go-related gene (hERG) potassium channel (Q12809 whole entry, looked up): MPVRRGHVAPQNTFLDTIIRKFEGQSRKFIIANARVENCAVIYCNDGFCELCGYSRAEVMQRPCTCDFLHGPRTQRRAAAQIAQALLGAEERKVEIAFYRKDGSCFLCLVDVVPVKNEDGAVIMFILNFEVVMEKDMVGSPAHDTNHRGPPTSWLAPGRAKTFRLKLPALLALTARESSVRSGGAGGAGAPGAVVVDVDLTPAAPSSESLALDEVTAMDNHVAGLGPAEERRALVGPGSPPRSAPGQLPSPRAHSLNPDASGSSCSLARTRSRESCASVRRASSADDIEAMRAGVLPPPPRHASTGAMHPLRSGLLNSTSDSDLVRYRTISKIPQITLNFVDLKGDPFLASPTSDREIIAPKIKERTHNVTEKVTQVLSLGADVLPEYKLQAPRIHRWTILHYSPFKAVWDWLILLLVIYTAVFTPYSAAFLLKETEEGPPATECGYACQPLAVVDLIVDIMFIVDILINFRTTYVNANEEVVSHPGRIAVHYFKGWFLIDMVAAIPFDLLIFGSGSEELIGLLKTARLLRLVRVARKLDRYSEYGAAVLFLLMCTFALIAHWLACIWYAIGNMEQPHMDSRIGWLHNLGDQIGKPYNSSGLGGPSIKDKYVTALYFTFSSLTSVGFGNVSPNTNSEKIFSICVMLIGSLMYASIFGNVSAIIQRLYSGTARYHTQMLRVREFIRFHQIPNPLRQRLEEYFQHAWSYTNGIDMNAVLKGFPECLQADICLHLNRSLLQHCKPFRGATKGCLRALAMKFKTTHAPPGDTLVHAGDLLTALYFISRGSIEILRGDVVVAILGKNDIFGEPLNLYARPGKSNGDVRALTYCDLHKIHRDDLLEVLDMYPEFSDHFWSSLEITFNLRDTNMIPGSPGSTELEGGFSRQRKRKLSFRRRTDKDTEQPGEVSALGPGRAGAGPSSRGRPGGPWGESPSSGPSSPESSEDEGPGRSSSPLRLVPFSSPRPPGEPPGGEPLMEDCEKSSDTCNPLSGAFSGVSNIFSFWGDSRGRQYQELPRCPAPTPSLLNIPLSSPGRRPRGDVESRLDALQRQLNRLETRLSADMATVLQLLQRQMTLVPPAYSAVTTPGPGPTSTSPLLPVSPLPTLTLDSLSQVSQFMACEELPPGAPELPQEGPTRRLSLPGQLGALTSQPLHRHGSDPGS

Compound | hERG current change (%, negative = inhibition) at 1uM
Cc1cc(C)n(-c2ccc(C(=O)N3CCN(S(=O)(=O)c4ccc(C(C)C)cc4)CC3)cc2)n1 | -10.6%
O=C(Oc1cccc(-n2cnnn2)c1)c1sc2ccccc2c1Cl | 15.9%
CSCC[C@H](NC(=O)COc1ccc(Cl)cc1)c1nc2ccccc2[nH]1 | -3.74%
Cn1c(NCC2CCCO2)nc2c1c(=O)n(Cc1ccccc1)c(=O)n2C (centres unmarked) | 8.7%
COc1cccc(NC(=S)N2CCn3cccc3C2c2cccnc2)c1 (centres unmarked) | 1.43%
C#CC(=O)N(c1cccc(OC)c1)C(C(=O)NC1CCCC1)c1cccs1 (centres unmarked) | -1.47%
Cc1oc(-c2ccc(Cl)cc2)nc1CN1CCC(C(=O)NCc2cccnc2)CC1 | -29.8%
COc1ccc(N=C2CCS(=O)(=O)c3sccc32)cc1 | 14.8%
COc1cccc(C(=O)NCCS(=O)(=O)N(C)Cc2ccccc2)c1 | -0.609%
Cc1ccc(S(=O)(=O)N2[C@@H](c3ccc(Cl)cc3)C(C(=O)O)=CC[C@H]2c2ccc(Cl)cc2)cc1 | 6.49%
Cn1c(SCC(=O)Nc2ccc(F)cc2)nnc1C1CC1 | 14.2%
O=C(NCCNc1ccc([N+](=O)[O-])cc1C(F)(F)F)c1ccccc1F | 4.97%
CC(=O)N1CCN(CCN2C(C)=CC(=C(C#N)C#N)C=C2C)CC1 | 8.09%
Cc1cnc(=O)[nH]c1SCC(=O)c1ccc(F)cc1 | 11.2%
CCOC(=O)C1(Cc2ccccc2C(F)(F)F)CCN(C2CCSC2)CC1 (centres unmarked) | -2.49%
CC(=O)c1c(C)[nH]c(C(=O)NCc2ccccc2)c1C | 6.97%
O=C(Cc1c(F)cccc1Cl)NCCN1CCOCC1 | 9.84%
CC1CC(Nc2ccccc2N)=CC(=O)O1 (centres unmarked) | 10%
Cc1nnc(SCC(=O)N(C)C2CCCCC2)n1C | 8.19%
CSc1ncccc1C(=O)NCCc1ccc(Cl)cc1 | 20.6%
CCCCC(=O)Nc1ccc(Br)cc1C(=O)O | 1.43%
COc1ccc(N(CCC#N)S(=O)(=O)c2ccc(Cl)cc2)cc1 | 6.94%

Compound | hERG current change (%, negative = inhibition) at 1uM
CCC(C)NC(=O)C(Sc1ccccc1)c1ccccc1 (centres unmarked) | 12.4%
Cc1cccc(NC(=O)CS(=O)(=O)c2cn(CC(=O)N3CCOCC3)c3ccccc23)c1 | 5.2%
CC1(C2CC2)NC(=O)N(CC(=O)N2CCN(c3ccccc3)CC2)C1=O (centres unmarked) | 7%
CC(C)C(CO)N1CCN(Cc2ccccc2)CCC1=O (centres unmarked) | 5.63%
Oc1ccc(C(=S)N2CCCCC2)cc1 | 13%
CC(C)(C)c1ccc(/C=N/OCC(=O)NCc2ccccc2)cc1 | -0.192%
CCN1C(=O)C(=O)N(CC(=O)Nc2cc(C)ccc2C)C1=O | 2.79%
O=S(=O)(N/N=C\c1ccc2c(c1)OCO2)c1ccc(Cl)cc1 | -14.6%
COc1ccc(S(=O)(=O)N2CCCCCC2)cc1C(=O)N(C)Cc1ccco1 | -1.44%
CCC(=NCc1ccco1)c1c(O)n(C2CCCCC2)c(=O)[nH]c1=O | 6.29%
COc1ccc(-c2nn(CCC#N)cc2C(=O)Nc2cccc(C(=O)O)c2)cc1[N+](=O)[O-] | 12.4%
Cc1ccc(NC(=O)c2ccc(S(=O)(=O)N3CCCCC3)cc2)nc1 | 4.76%
O=C(NC(=S)Nc1ccccn1)c1cc(-c2ccccc2)nc2ccccc12 | 16.5%
C[N+]12CCC(CC1)C(C(O)(c1ccccc1)c1cccs1)C2.[I-] (centres unmarked) | 2.17%
Cc1ccc2nsnc2c1NC(=O)Cc1ccc(Cl)cc1 | 16.7%
COC(=O)c1c(C)[nH]c(C(=O)C(C)OC(=O)C2CC(=O)N(CCc3ccccc3)C2)c1C (centres unmarked) | 9.56%
CN(C)CCNC(=O)/C(=C/c1cccc([N+](=O)[O-])c1)NC(=O)c1ccccc1 | -28.6%
C/C(=N\NC(=O)c1cc(-c2cccnc2)nc2ccccc12)c1ccc(O)cc1O | 1.88%
Cn1nnnc1SCc1ccccc1[N+](=O)[O-] | 5.51%
CN(C)S(=O)(=O)c1ccc(C(=O)OCc2ccc([N+](=O)[O-])cc2)cc1 | 22.1%
O=C(Cc1ccc(Br)cc1)Nc1cccc(Cl)c1 | 4.23%
COc1cc(/C=C/C(=O)OCC(=O)N2CCC(Cc3ccccc3)CC2)ccc1O | 12.5%
